# According to PubChem BioAssay AID624296 (National Center for Advancing Translational Sciences (NCATS), 2012):
# About 9,900 (2.8%) of roughly 350,000 compounds were called active. Inconclusive results, whose numbers are uncertain, are shown with a selection of clear calls. Calls follow the shape of the dose curve; as a rule, active = well fitted activation curve with a large enough effect; inconclusive = small, poorly fitted or top-dose-only effect; inactive = no such curve, though single readings can be large or run the other way. No potency is given beside an inconclusive call; the fits are too rough.
# Test: A quantitative high throughput screen for small molecules that induce DNA re-replication in MCF 10a normal breast cells. Also: nearly all actives have a fitted effect of over 50% in size.
# Conditions: MCF 10A DNA re-replication, Hoechst nuclear intensity, 48 h; series mostly up to 46.1 µM
# Potency is read from the fitted curve at half-maximal effect; tags tell the direction and shape of the fitted curve.
row,Structure (SMILES),Potency
1,CCOc1ccc2ccccc2c1C(=O)NCC(c1ccc(N(C)C)cc1)N(C)C (stereo not given),"inconclusive [activator, partial curve, poor fit]"
2,O=C(Nc1cccn(Cc2cccc(F)c2)c1=O)NC1CCCCC1,inactive
3,CCc1cc2c(cc3c(=O)n(CC(=O)NCCCN(CC)CC)nc(CC)n32)s1,"inconclusive [activator, partial curve, poor fit]"
4,CCCn1c(=N)n(CC(=O)c2ccc([N+](=O)[O-])cc2)c2ccccc21,active: 14.6 µM
5,CCCCCCCC(=O)Nc1cc(C(=O)NCc2ccc(C)cc2)ccc1N1CCC2(CC1)CC(c1ccccc1)=NO2,inactive
6,COc1ccc(N2CC(C(=O)Nc3ncccc3C)CC2=O)cc1 (stereo not given),"inconclusive [activator, partial curve, poor fit]"
7,COCc1cc(=O)[nH]c(SCCS(=O)(=O)c2ccc(Cl)cc2Cl)n1,active: 16.4 µM
8,Cc1ccc(-c2ccc(/C=C3/NC(=O)NC3=O)o2)cc1[N+](=O)[O-],"inconclusive [activator, partial curve, poor fit]"
9,Cc1cc(C)nc(CCNC(=O)CC2C(=O)NCCN2Cc2ccccc2)n1 (stereo not given),inactive
10,S=C(NCc1ccc2c(c1)OCO2)NC1CC1,inactive
11,COc1cccc(C(=O)Oc2cc3c4c(c2)C(C)=CC(C)(C)N4C(=O)C3=O)c1,"inconclusive [activator, single point]"
12,CC(C)c1cc(-c2cc(-c3ccc(Cl)cc3)on2)nc(NC2CCCC2)n1,"inconclusive [activator, partial curve, poor fit]"
13,CSc1ccccc1NC(=O)COc1ccc(Cl)cc1Cl,inactive
14,CCOc1ccc(C(=O)C(CCC(CN(C)C)C(=O)c2ccc(OCC)cc2)CN(C)C)cc1 (stereo not given),"inconclusive [activator, partial curve, poor fit]"
15,COc1ccc2cc(C3=CC(=O)C[C@H](c4ccc5c(c4)OCO5)C3)ccc2c1,"inconclusive [activator, single point]"
16,C=C(C)CSc1ncc(-c2cccc(C(F)(F)F)c2)cn1,"inconclusive [activator, single point]"
17,Cc1csc2c(N3CCN(C(=O)NC(C)(C)C)CC3)ncnc12,"inconclusive [activator, single point]"
18,COc1ccc(S(=O)(=O)N2CCc3ccccc32)cc1C(=O)NCCc1ccccn1,inactive
19,COCCCNC(=O)c1c(N)n(/N=C/c2ccccn2)c2nc3ccccc3nc12,"inconclusive [activator, full curve, poor fit]"
20,O=c1cc(-c2ccc(O)c(O)c2)oc2c1ccc1ccccc12,"inconclusive [activator, single point]"
21,Cc1ccc(NS(=O)(=O)c2ccc(NC(=O)C(C)Sc3ccc(Cl)cc3)cc2)c(C)c1 (stereo not given),"inconclusive [activator, single point]"
22,Cc1cc(CN2CCC(n3nccc3NC(=O)c3ccccc3Cl)CC2)cc(C)c1O,inactive
23,O=C(O)CCCn1c(O)c(C=C2N=c3ccccc3=N2)sc1=S,"inconclusive [activator, single point]"
24,O=C(CN1CCCCC1)N1CCN(c2ccccc2)CC1,inactive

row,Structure (SMILES),Potency
1,O=C(CSc1ccc(Cl)cc1)Nc1ccc(C2SCCS2)cc1,"inconclusive [activator, partial curve, poor fit]"
2,Cc1ccc(CCNC(=O)CCCn2nc(C)c3c(C)n(-c4ccc(C)cc4)nc3c2=O)cc1,inactive
3,N/C(=N\S(=O)(=O)c1cc(C(F)(F)F)cc(C(F)(F)F)c1)c1ccncc1,inactive
4,COc1cc2c(cc1OC)C(c1ccccc1)N(C(=O)c1ccccc1F)CC2 (stereo not given),inactive
5,COc1cccc(/C=N/N2CCN(Cc3ccccc3)CC2)c1O,"inconclusive [activator, partial curve, poor fit]"
6,CC[C@]12c3[nH]c4cc(CCC(=O)N(C)C)ccc4c3CCN1C(=O)[C@@H](CC(=O)NC/C=C(\C)CCC=C(C)C)C[C@@H]2C(=O)N1CCN(C(=O)C2CC2)CC1,inactive
7,COC(=O)c1sc2cc([N+](=O)[O-])cc(SCC(C)C)c2c1N,inactive
8,CC(C)(C)c1ccc(/C=N/OCC(=O)NCc2ccc(F)cc2)cc1,"inconclusive [activator, single point]"
9,Cc1ccc(/C=N/NC(=O)NN(C)c2ncc(C(F)(F)F)cc2Cl)cc1,inactive
10,COCCNC(=O)CCSCc1ccccc1F,active: 4.11 µM
11,CCOc1ccc(N2C(=O)CC(N(CCc3ccc(OC)c(OC)c3)C(=O)/C=C/C(=O)O)C2=O)cc1 (stereo not given),inactive
12,CCN(CC)CCNC(=O)c1ccc2c(c1)ncn2C1CCCCC1,"inconclusive [activator, partial curve, poor fit]"
13,Cc1cccc(N2CCN(C(=O)c3cn(C)c(=O)c4c3c3ccccc3n4C)CC2)c1C,"inconclusive [activator, single point]"
14,c1ccc(CN2CCN(Cc3nnc(-c4ccccc4)o3)CC2)cc1,inactive
15,CC(C)OC(=O)C(C(=O)C(F)(F)F)c1cc(NS(=O)(=O)c2ccc3ccccc3c2)c2ccccc2c1O (stereo not given),"inconclusive [activator, single point]"
16,Cc1ccc(OCC(O)CN2CCN(CC(O)COc3ccc(C)cc3)CC2)cc1 (stereo not given),inactive
17,CC1CC(C)CN(C(=O)CCCn2c(=O)c3cccn3c3cccnc32)C1 (stereo not given),inactive
18,CC(=O)c1c(C)c(C)c2n1CCn1c(C)ccc1-2,inactive
19,COc1cc(/C(C)=N/NC(=S)NC(C)C)cc(OC)c1OC,"inconclusive [activator, single point]"
20,COc1ccc(C(=O)c2cn[nH]c2-c2cc(Cl)ccc2O)cc1,inactive
21,Cc1ccc(C)c(OCC(=O)Nc2ccncc2)c1,inactive
22,O=C(c1ccco1)N1CCN(C(=O)N2CCOCC2)CC1,"inconclusive [activator, single point]"
23,O=C(Nc1ccc(Cl)cn1)c1cccc(OCc2ccccc2)c1,"inconclusive [activator, single point]"
24,Cc1ccc(/C=C/c2ccc(=O)n(Cc3ccccc3Cl)n2)cc1,"inconclusive [activator, single point]"

row,Structure (SMILES),Potency
1,CCOc1cc(C(=S)N2CCOCC2)cc(Br)c1OS(=O)(=O)c1ccccc1,"inconclusive [activator, partial curve, poor fit]"
2,COc1ccc(N2CCN(C(=O)CCNC(=O)c3ccccc3)CC2)cc1,inactive
3,Oc1ccccc1-c1cc(C(F)(F)C(F)F)nc(-c2ccccc2)n1,"inconclusive [activator, partial curve, poor fit]"
4,CCOC(=O)c1[nH]cnc1C(=O)Nc1ccc([N+](=O)[O-])cc1,"inconclusive [activator, partial curve, poor fit]"
5,CCc1ccc2[nH]c(=O)c(CN(Cc3ccc4c(c3)OCO4)C(=O)c3ccco3)cc2c1,"inconclusive [activator, partial curve, poor fit]"
6,CCc1ccc(C(=O)CN2C(=O)NC3(CCCCCC3)C2=O)cc1,"inconclusive [activator, full curve, poor fit]"
7,O=C1CCCC(=O)C1=C1SCCCS1,"inconclusive [activator, partial curve, poor fit]"
8,CCSc1nnc(CCNS(=O)(=O)c2ccc(C(C)=O)cc2)n1C,"inconclusive [activator, partial curve, poor fit]"
9,COc1ccc(-c2nc3ccccc3c(=O)n2NC(=S)N(C)C)cc1,inactive
10,CCn1c2ccc(C)cc2c2nnc(NN)nc21,"inconclusive [activator, single point]"
11,O=C(NCc1ccco1)c1cc2nc(-c3ccc4c(c3)OCO4)cc(C(F)(F)F)n2n1,"inconclusive [activator, single point]"
12,CC(=O)N(C(C)=O)N1C(=O)/C(=C/c2ccc(Cl)cc2)SC1=S,"inconclusive [activator, single point]"
13,CCOc1cc(-c2nc3ccccc3s2)ccc1O,"inconclusive [activator, single point]"
14,Cc1ccc(NC(=O)CSC(C)C(=O)NCCc2ccccn2)cc1 (stereo not given),"inconclusive [activator, single point]"
15,c1ccc(-c2nc(-c3ccco3)n3ccccc23)cc1,active: 20.6 µM
16,Cc1cc(C(=O)CN2C(=O)NC(C)(c3cccc(Br)c3)C2=O)c(C)n1Cc1ccco1 (stereo not given),"inconclusive [activator, full curve, poor fit]"
17,CCCC(C(=O)NC1CCCC1)N(C(=O)Cn1nnc(-c2ccc(C)o2)n1)c1ccccc1OC (stereo not given),inactive
18,COC(=O)CC(CP(=O)(O)CN(C)C=O)C(=O)OC (stereo not given),inactive
19,Cc1cc(-c2n[nH]c(=S)n2/N=C/C(Br)=C/c2ccccc2)n[nH]1,"inconclusive [activator, full curve, poor fit]"
20,CCc1ccccc1NC(=O)NCc1ccc2c(c1)OCO2,"inconclusive [activator, single point]"
21,Cc1cc(C)c(NC(=O)C[C@H](CC(=O)O)c2cccc3ccccc23)c(C(=O)N2CCC3(CCCC3)CC2)c1,"inconclusive [activator, single point]"
22,O=S(=O)(c1ccc2ccccc2c1)N(CC(O)COCc1ccco1)c1ccccc1 (stereo not given),"inconclusive [activator, single point]"
